# In article PMC4336329 (PLoS ONE, 2015):
# Among all 310,000 compounds or so, about 2,200 (0.71%) showed an effect of 50% or more. Effects have a minus sign here. The list shows a part of the results.
# Target: human ether-à-go-go-related gene (hERG) potassium channel (human, UniProt Q12809)
# Assay: primary screen, population patch clamp on CHO cells stably expressing hERG
# human ether-à-go-go-related gene (hERG) potassium channel, sequence (Q12809 whole entry, looked up): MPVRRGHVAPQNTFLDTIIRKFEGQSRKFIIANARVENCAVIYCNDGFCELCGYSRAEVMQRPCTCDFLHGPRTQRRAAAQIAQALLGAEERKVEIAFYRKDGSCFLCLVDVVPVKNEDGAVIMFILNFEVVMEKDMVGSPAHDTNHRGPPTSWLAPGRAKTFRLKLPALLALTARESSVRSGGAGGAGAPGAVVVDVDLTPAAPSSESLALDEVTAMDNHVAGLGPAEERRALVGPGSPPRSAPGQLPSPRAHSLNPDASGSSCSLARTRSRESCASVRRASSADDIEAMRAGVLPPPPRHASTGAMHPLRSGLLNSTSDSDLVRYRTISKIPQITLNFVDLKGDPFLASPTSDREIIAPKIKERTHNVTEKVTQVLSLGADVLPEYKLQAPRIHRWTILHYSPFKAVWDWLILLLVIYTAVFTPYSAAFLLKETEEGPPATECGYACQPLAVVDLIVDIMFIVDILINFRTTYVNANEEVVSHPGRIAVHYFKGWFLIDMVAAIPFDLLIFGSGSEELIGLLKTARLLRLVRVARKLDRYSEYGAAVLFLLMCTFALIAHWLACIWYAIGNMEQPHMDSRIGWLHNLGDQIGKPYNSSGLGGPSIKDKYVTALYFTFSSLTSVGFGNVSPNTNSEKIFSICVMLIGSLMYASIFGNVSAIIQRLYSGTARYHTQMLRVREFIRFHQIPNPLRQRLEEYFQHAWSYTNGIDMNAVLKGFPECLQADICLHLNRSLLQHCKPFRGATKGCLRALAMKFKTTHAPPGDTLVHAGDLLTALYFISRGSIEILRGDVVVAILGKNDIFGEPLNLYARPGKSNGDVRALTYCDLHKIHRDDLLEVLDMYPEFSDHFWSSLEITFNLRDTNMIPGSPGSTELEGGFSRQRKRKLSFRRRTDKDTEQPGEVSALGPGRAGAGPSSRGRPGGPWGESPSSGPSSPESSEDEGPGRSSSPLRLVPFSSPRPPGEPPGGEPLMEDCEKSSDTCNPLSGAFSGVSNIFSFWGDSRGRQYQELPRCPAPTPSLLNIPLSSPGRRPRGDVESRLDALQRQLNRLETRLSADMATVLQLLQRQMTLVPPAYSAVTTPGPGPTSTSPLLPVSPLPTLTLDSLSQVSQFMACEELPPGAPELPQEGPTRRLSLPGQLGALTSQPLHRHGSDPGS
row,SMILES,"hERG current change (%, negative = inhibition) at 1uM"
1,O=C(Nc1ccc2c(c1)OCO2)C1CCCN1C(=O)NCc1ccccc1 (stereo not shown),9.42%
2,O=S(=O)(Nc1cc2nc3ccccc3nc2n1Cc1ccccc1)c1ccc(Cl)cc1,16.1%
3,Cc1cccc(NC(=O)CN2C(=O)S/C(=C\c3ccccn3)C2=O)c1,9.73%
4,CCCOc1ccc(C2C(C(=O)/C=C/c3ccco3)=C(O)C(=O)N2CCN2CCOCC2)cc1OC (stereo not shown),7.02%
5,CCOc1ccc(C(=O)NCC(=O)OCC(=O)c2ccc3c(c2)-c2ccccc2C3)cc1,24.3%
6,Cc1ccc(OCC(=O)O/N=C(\N)Cc2ccc(Cl)cc2)cc1,10.7%
7,Cc1cccc2sc(NC(=O)c3ccc(OCC4CCCO4)cc3)nc12 (stereo not shown),14.7%
8,O=c1c2ccccc2sc2ccc(NCCCN3CCOCC3)cc12,6.03%
9,CCCOC(=O)Nc1sc2c(c1C(N)=O)CCCC2,17.7%
10,CCOC(=O)/C(N=Nc1c(C)n(C)n(-c2ccccc2)c1=O)=C(\C)O,5.02%
11,COc1ccc(Cl)cc1NS(=O)(=O)c1cccc(C(=O)NCC2(N(C)C)CCCCC2)c1,3.91%
12,COc1ccc(OC)c(/C=N/NC(=O)c2cc3c(OC)cc(OC)cc3[nH]2)c1,22.5%
13,COc1ccc(C(=O)N2CC(=O)Nc3ccc(F)cc3C2c2ccccc2)cc1 (stereo not shown),7.28%
14,Cc1ccc(NC(=O)C2CCN(S(=O)(=O)c3ccc4c(c3)OCCO4)CC2)nc1,8.86%
15,CCCOC(=O)c1cccc(NC(=O)c2cccnc2)c1,-7.06%
16,CCCCC1(C(=O)OCC)CC(CN2CCOCC2)OC1=O (stereo not shown),2.84%
17,CCn1c(COc2ccc(=O)n(-c3ccccc3)n2)nnc1SCc1ccccc1C,-43.9%
18,CCS(=O)(=O)c1ccc2oc(Nc3cc(Cl)ccc3OC)nc2c1,7.99%
19,O=C(COC(=O)CCc1c[nH]c2ccccc12)NC1CCS(=O)(=O)C1 (stereo not shown),11.7%
20,O=C(CSc1nc2cc(Cl)ccc2s1)NC1CCCc2ccccc21 (stereo not shown),3.95%
21,CCCCNC(=O)c1ccccc1NC(=O)c1ccc2c(c1)OCO2,12.6%
22,CCOC(=O)COc1ccc2c(c1)c(C(=O)OCC)c(C)n2CC,1.5%

row,SMILES,"hERG current change (%, negative = inhibition) at 1uM"
1,NC(=O)c1ccc[n+](CC(=O)c2ccc(NC(=O)c3ccccc3)cc2)c1.[Br-],13.8%
2,O=C(Nc1ccc2c(c1)OCO2)C(c1ccccc1)N1CCN(C(=O)c2ccco2)CC1 (stereo not shown),5.53%
3,O=C(C[N+]12CC[N+](CC(=O)c3ccc(F)cc3)(CC1)CC2)c1ccc(F)cc1.[Cl-],16%
4,Cc1cccc(C)c1NC(=S)NN1CCN(C)CC1,11.2%
5,COc1ccc(OC)c(NC(=O)CSc2ncccn2)c1,10.8%
6,CCCCN(C(=O)NC(=O)C1=C(N2CCOCC2)/C(=C/c2ccccc2)CC1)S(C)(=O)=O,6.19%
7,CCC(c1nnc(SCC(=O)Nc2ccc(C(=O)Nc3ccccc3OC)cc2)o1)N(C)C (stereo not shown),8.32%
8,O=C(COc1ccccc1[N+](=O)[O-])Nc1ccccc1N1CCCCC1,-2.02%
9,[2H]c1c([2H])c([2H])c(-c2nc(N3CCCCCC3)sc2C(=O)c2ccccc2)c([2H])c1[2H],17.4%
10,CCS(=O)(=O)N1CCN(CC(=O)NC2CCCCC2)CC1.Cl,15.7%
11,COc1ccc(S(=O)(=O)N2CCC(C(=O)NCCC(=O)NCc3ccncc3)CC2)cc1,6.8%
12,COc1ccc(/C=N/OCC(=O)N=Nc2c(O)[nH]c3ccc(Br)cc23)cc1OC,2.83%
13,CCN(CC)S(=O)(=O)c1ccc2[nH]cc(C(=O)NCCCN3CCCCC3C)c(=O)c2c1 (stereo not shown),3.88%
14,COCC(=O)Nc1ccccc1NC(C)=O,-6.55%
15,O=C(/C=C/c1ccco1)N1CCN(c2ccc(F)cc2)CC1,4.13%
16,Cc1ccc(C(=O)N/C(=C\c2cn(C)c3ccccc23)C(=O)N2CCN(C)CC2)cc1,7.94%
17,Cc1cc(OCC(=O)NC2CCN(C)CC2)ccc1[N+](=O)[O-],10.8%
18,COc1cccc(CNC(=O)c2cc3oc4ccccc4c3n2C)c1OC,12.8%
19,CCc1cccc(OCC(=O)Nc2ccc(S(=O)(=O)Nc3ccccn3)cc2)c1,6.86%
20,CCN(CC)C(=O)c1ccc(-c2nnc(OC)c3ccccc23)cc1,-1.67%
21,COc1cccc(-n2c(=O)c3c(C)c(C(=O)N(C)C)sc3n(CC(=O)NCC3CCCO3)c2=O)c1 (stereo not shown),7.29%
22,Cc1ccc(N=Cc2sc(O)c3ccccc23)cc1,17.2%

row,SMILES,"hERG current change (%, negative = inhibition) at 1uM"
1,O=c1c2cc3c(cc2[nH]c(=S)n1CCN1CCOCC1)OCO3,4.6%
2,Cc1ccsc1/C=N/n1cnc2sc(C)c(C)c2c1=O,1.24%
3,COc1ccc(N2C(=O)c3ccc(C(=O)Nc4ccc(NC(C)=O)cc4)cc3C2=O)cc1,1.58%
4,CC1CCN(C(=S)Nc2cccc(S(=O)(=O)N(C)C)c2)CC1,18.2%
5,CCC(=O)N1CCN(c2ccc(NC(=O)c3ccc4c(c3)OCO4)cc2)CC1,7.92%
6,CN(CC(=O)Nc1ccccc1N1CCOCC1)S(=O)(=O)c1ccc(Cl)cc1,10.1%
7,COc1ccc(NC(=S)N2CCc3ccccc3C2)cc1,1.69%
8,Cc1ccccc1NC(=O)Cn1nc(C(F)(F)F)cc1C1CC1,5.56%
9,Cc1ccc(C)c(S(=O)(=O)N2CCN(C(=O)Cn3c(C(F)(F)F)nc4ccccc43)CC2)c1,3.57%
10,COc1cccc2cc(-c3ccccc3)oc12,14.3%
11,COc1cccc(N2CCN(C(c3ccccn3)c3nnnn3C(C)(C)C)CC2)c1 (stereo not shown),14%
12,O=C(NCC(c1cccnc1)N1CCN(c2ccc(F)cc2)CC1)C1CCCCC1 (stereo not shown),-2.23%
13,COc1ccc(OC)c(-c2nnc(-c3ccc(C)o3)o2)c1,5.37%
14,O=C1N(c2cccc3ccccc23)C(c2ccccc2)N2CCCN12 (stereo not shown),3.51%
15,Cc1nc(S(=O)(=O)Cc2ccccc2)nc2c1CCC2,9.14%
16,CCC(=O)c1cn(CC(=O)Nc2ccc(C)cc2C)c2ccccc12,15.3%
17,COc1ccc(CN2CCN(S(=O)(=O)c3ccc(NC(C)=O)cc3)CC2)cc1OC.O=C(O)C(=O)O,-2.26%
18,CCc1ccccc1NC(=S)Nc1cc(OC)c(NC(=O)C(C)C)cc1OC,10.8%
19,O=C(COc1ccccc1)NNC(=O)c1cc2ccccc2o1,7%
20,COCCn1c(=O)c2c(nc3n2CCCN3Cc2ccccc2)n(C)c1=O,-3.03%
21,COc1ccc(Cl)cc1S(=O)(=O)N(C)CC(=O)N1CCOCC1,21.9%
22,O=C(O)CNC(=O)CC12CC3CC(CC(C3)C1)C2,12.8%

row,SMILES,"hERG current change (%, negative = inhibition) at 1uM"
1,Cc1ccc(NC(=O)c2cc3c(CO)cnc(C)c3oc2=Nc2cccc(C(N)=O)c2)cc1,10%
2,Cc1ccc(NC(=O)CC2C(=O)N(Cc3ccccc3)C(=S)N2NC(=O)c2ccccc2)c(C)c1 (stereo not shown),17.8%
3,CCC1CCCCN1Cc1c(O)ccc2c(=O)c(-c3ccccc3)coc12 (stereo not shown),2.84%
4,CS(=O)(=O)N1CCC(C(=O)NCCN2CCN(Cc3ccccc3)CC2)CC1,17.5%
5,Cc1ccc(Cl)c(OCC(=O)NCC(c2cccs2)N2CCOCC2)c1 (stereo not shown),6.76%
6,O=C(O)/C=C1\NC(=O)c2ccccc21,16.5%
7,Cn1cccc1Cc1nnc(SCC(=O)NCc2ccc3c(c2)OCO3)n1CCc1ccccc1,8.35%
8,COC(=O)C[C@H]1c2cc(C(F)(F)F)ccc2S(=O)(=O)N1Cc1ccc(OC)cc1,7.52%
9,CCOc1ccc(-n2cnnn2)cc1S(=O)(=O)NCCc1ccc(OC)c(OC)c1,10.5%
10,O=C(COC(=O)c1ccccc1OC(F)F)Nc1ccc2[nH]c(=O)[nH]c2c1,7.3%
11,CC(C)S(=O)(=O)C1=NSC2=NC(=O)/C(=C\c3ccc(-c4ccccc4)o3)C(=N)N21,6.17%
12,Cc1ccc(-c2nn3nnnc3c3ccccc23)cc1,12.9%
13,COc1ccccc1N1CCN(C(=O)C2C3C=CC4(CN(Cc5ccccc5Cl)C(=O)C24)O3)CC1 (stereo not shown),-9.39%
14,Cc1c(C(=O)NCC2COc3ccccc3O2)oc2ccc(S(=O)(=O)N3CC(C)CC(C)C3)cc12 (stereo not shown),12.1%
15,Cc1ccc(S(=O)(=O)NCC2CCC(C(=O)NCc3ccc4c(c3)OCO4)CC2)cc1 (stereo not shown),6.44%
16,O=c1cc(-c2ccccc2)[nH]n1-c1nc2ccccc2s1,12.9%
17,O=C(NC1CCCCC1)C1CCCN1S(=O)(=O)c1ccc(Cl)cc1 (stereo not shown),3.48%
18,CC1CN(C(=O)CN2C(=O)NC3(CCCC3)C2=O)C(=Nc2cccc(S(=O)(=O)N(C)C)c2)S1 (stereo not shown),9.45%
19,Cc1ccn2c(=O)nc(SCC(=O)NC3CCCC3)nc2c1,14.6%
